Experimental data as given in the supplement of paper PMC11417369.
± gives the standard deviation of the averaged measurements. Some of the results follow.

What follows are sequences tested on PfAP2-EXP AP2 domain (GST-tagged) (assay: gcPBM binding intensity (ln(normalized median fluorescence intensity)); higher = stronger DNA binding).
Summary of the method: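 The binding buffer was 1× PBS containing 1% milk, 0.2 mg/ml BSA, 0.5% salmon testes DNA and 0.03% Triton X-100. In it, GST-tagged P. falciparum DNA-binding domains expressed in E. coli were applied for 1 h to an Agilent 4 × 180k array of primer-extended double-stranded 36-bp intergenic genomic probes plus negative controls. Binding intensity, read with Alexa488 anti-GST antibody and a 488 nm scan, is the highest Masliner-normalised natural-log median intensity across replicate spots of either probe orientation.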

Row | Sequence | gcPBM binding intensity (ln)
1 | ATTCTATTCTCCTTCACACACAAAAATATTTCATCA [CACACA_site2360] | 8.91 ± 0.45
2 | ATGCAATTATATAGTAGTACAAATTTATAAATATAC [XGTACX_site4869] | 8.99 ± 0.38
3 | ATTATACACCCGCGCACACACAACAAAAAAAAAAAA [CACACA_site5871] | 8.84 ± 0.26
4 | ATAATTGTTTAAAGGTGTACAATACATATATTTTAA [XGTACX_site3648] | 8.35 ± 0.28
5 | TCATATATTATATATTGTACAAAATAATAAGTATTT [XGTACX_site3987] | 8.32 ± 0.38
6 | ATATATATATATATGGGTACGTAAAAATATAATAAA [XGTACX_site4036] | 10 ± 0.25
7 | TTTTCTTTCTTTCAAACACACATTAATTTTATTCAT [CACACA_site2734] | 8.5 ± 0.51
8 | TAAAATTATTAATGAGTGCATTATAAAATCTATATA [GTGCAC_site9493] | 8.57 ± 0.4
9 | GTTGTTATATAAAATTGTACATAAAAAACAAAATAT [XGTACX_site5313] | 8.79 ± 0.42
10 | ATAAATGGCTATAGCATATTGTATATGTGATTATAA [CACACA_negctrl_site948] | 8.46 ± 0.4
11 | TATATATATATATATTGTACTAAATCATTTAAATGA [XGTACX_site8016] | 10 ± 0.3
12 | AAAAAACAAAAACACACGCACACAAAAAAAAAAAAA [CACACA_site802] | 8.35 ± 0.53
13 | CACAAATATACAAATACACACAAATATACACATATA [CACACA_site7176] | 8.51 ± 0.5
14 | ATGAAAATATTTAAAAGTACAGAAATATAAAACCTT [XGTACX_site403] | 8.79 ± 0.51
15 | TATTTTATACACTTGCTAAAACATTAACACATATGT [CACACA_negctrl_site1818] | 8.46 ± 0.47
16 | TATAAAATATAAATAAATAAATAAATATATATATAT [TGCATGCA_negctrl_site448] | 9.78 ± 0.13
17 | AAAATATTTATCATTTGTACTTAGATGTAAACTTGA [XGTACX_site1778] | 8.12 ± 0.38
18 | TTATTAAATTTTTTTTGTACTTATATATATATATAT [XGTACX_site2443] | 10.1 ± 0.17
19 | ATTATTATATAGTGTGCATGCAATATTAATAAAACC [TGCATGCA_site245] | 10.3 ± 0.4
20 | TATGAATGTATATGTTGTACATATAAATATTTATAT [XGTACX_site1146] | 8.53 ± 0.46
21 | TAAGCTTGTAACAGTTTACACACTAATATTTATAAA [CACACA_site3907] | 8.36 ± 0.47
22 | AATAAATATATTACATATATGTGTAGTATTTTTTTA [TGCATGCA_negctrl_site268] | 8.21 ± 0.45

Row | Sequence | gcPBM binding intensity (ln)
23 | ACACATATATATTATTATTATATAATATATATATAT [CACACA_negctrl_site1545] | 9.21 ± 0.15
24 | ACATGTTTTATGTGCACACAAAGTTGTTATGAGGTT [CACACA_site4031] | 9.38 ± 0.53
25 | ATATAATATTTCATGTGGACACATTTTATGATTGTA [XGTACX_site8770] | 8.74 ± 0.38
26 | ATATATTATATATATTACAACTTAAGAATATACATA [TGCATGCA_negctrl_site371] | 8.28 ± 0.54
27 | TCCTGTGATTATATAACACACATTATTGCTTATAAG [CACACA_site1518] | 8.77 ± 0.56
28 | ATTGTTTATATTGATTGTACTCATTTTTTTTTTATT [XGTACX_site1946] | 8.84 ± 0.39
29 | ATAGTAAACGAAATAAAAAGATTAGCATAATATCCT [CACACA_negctrl_site1730] | 8.74 ± 0.38
30 | ATTATATATATATATACACACACACCCTAAAAATAT [CACACA_site8463] | 8.94 ± 0.56
31 | ATATATTGAAAAAAATGTACGTATTTTTTTATGTTA [XGTACX_site4654] | 8.41 ± 0.26
32 | AATCAAAATTAATTAACACACAATTTTAATATTCTT [CACACA_site2063] | 8.13 ± 0.43
33 | TGTTTTTTGTTCTTTACAAAAAAAAAAAAAAAAAAA [GTGCAC_negctrl_site61] | 7.96 ± 0.46
34 | TCTTGTATATACAGTAGTACTAAAAATTATTAAATA [XGTACX_site7896] | 8.47 ± 0.34
35 | ACATACAAGAATTAAACACACACAAAATATAAATTC [CACACA_site8985] | 8.81 ± 0.45
36 | GAAAACAAATATGTAGCACACATTCACATAATATAT [CACACA_site8731] | 8.43 ± 0.45
37 | TTATGTTGTAAATGCACACATACAAATACAGATACA [CACACA_site4876] | 8.71 ± 0.3
38 | ATAAATATAAAAATTTGTACATATATAGGTATAGGT [XGTACX_site1735] | 8.9 ± 0.57
39 | ATTATAATGGTAAAGTGTACAAATTTTTATTACACC [XGTACX_site5274] | 8.64 ± 0.3
40 | TTATTTCAAATTAATTTACACACTTCATACTAAAAG [CACACA_site9039] | 8.65 ± 0.43
41 | CATTATTTACCGCCGTGTACGTAATGAGAAATTAAA [XGTACX_site4662] | 8.49 ± 0.39
42 | TAATAAAAAAAGTGCACACACATAATATTTATATAT [CACACA_site7548] | 8.63 ± 0.24
43 | TTTATTTATTATTAAAGTACTAAATTACATTATTAT [XGTACX_site6624] | 8.1 ± 0.28
44 | TATTTAATTACATGAACACACATTAGATATTTTTAA [CACACA_site7405] | 8.14 ± 0.44

Row | Sequence | gcPBM binding intensity (ln)
45 | AAAATAAATAGATAAGCACACAAGCATATAGACATA [CACACA_site7958] | 8.7 ± 0.53
46 | TAATTTCTTATGTATTGTACATATAATATATGATAT [XGTACX_site4898] | 8.52 ± 0.41
47 | AATATATTTATGCTCATGCACTTTTTTTTTTTTTTT [GTGCAC_site9654] | 8.48 ± 0.28
48 | ATGTACATTTTTTTCACACATACATTAATTTATGAG [CACACA_site5801] | 8.82 ± 0.44
49 | AGAATAAAAAGGAACACACACACACCCATATATATA [CACACA_site3590] | 8.86 ± 0.32
50 | TATGTTATATTATAAGGATAAATTTTGATTATATAA [TGCATGCA_negctrl_site600] | 8.07 ± 0.36
51 | TATATTTACATTGTAACACACATGAAATATTTATAT [CACACA_site6178] | 8.37 ± 0.34
52 | TAGACTAATCCCAAAAGTACAGAAAAATTATATTAT [XGTACX_site8663] | 8.49 ± 0.41
53 | TATATTATATATTGGGGTACATATATATAAATATAA [XGTACX_site2296] | 8.71 ± 0.42
54 | TATCAATATTAAAAAGTGCAAAATAAAATATAAAAT [GTGCAC_site9486] | 9.05 ± 0.37
55 | CGTAGCCCCACTAACACACACAAATATACTCAATCA [CACACA_site5587] | 8.59 ± 0.61
56 | AGTTTTTATTAAAACAAAATTTAATTATAACGTTGA [XGTACX_negctrl_site298] | 8.08 ± 0.3
57 | TATATATATATATACACACATACATATATATATTTG [CACACA_site857] | 10.1 ± 0.3
58 | TTATATGTATGAACAAGTACATGCTATAATTATAAA [XGTACX_site1399] | 8.38 ± 0.38
59 | ATATATATATATATATGTACATATATACATATATGT [XGTACX_site1521] | 10 ± 0.49
60 | AGTAGTCTGGAGAAGAGTACATAGTTTCTGGTAGCT [XGTACX_site2023] | 8.57 ± 0.42
61 | AATAACTATATATGTGTGCACAAAAATTTGACATAA | 8.99 ± 0.18
62 | TTTTTTTTTTTTTGATGTACAATAATTAAAGAGTAA [XGTACX_site8403] | 8.32 ± 0.54
63 | GTATATATATATATATGTACATATTTAGAGTTCTGT [XGTACX_site5357] | 8.65 ± 0.22
64 | ATATTTACCATTGTATGTACATATATAAAATATATC [XGTACX_site3237] | 8.63 ± 0.36
65 | AACATATACACGAACACACACACATATATATATATA [CACACA_site502] | 10.1 ± 0.38
66 | TAAAGAAAAAAATGTTGTACTTTATGAAACATATTT [XGTACX_site412] | 8.23 ± 0.3

Row | Sequence | gcPBM binding intensity (ln)
67 | AAAACAAATGAGTACACACACATAAAAATTGAAAAT [CACACA_site199] | 8.78 ± 0.47
68 | ACACTATCTTAGATTTGTACATATTTATATATGTAT [XGTACX_site8739] | 8.55 ± 0.38
69 | TCGGTATCTGTTCAAAGTACACATTTGTATACAAAA [XGTACX_site1890] | 8.62 ± 0.33
70 | TATATAACATATGGGACACACATGCAACTGTTATAT [CACACA_site3792] | 8.97 ± 0.25
71 | ATGTGATGTTATATATGTACTTATTTTTTAATAAGG [XGTACX_site1786] | 8.54 ± 0.28
72 | TTTTTATATTATTTAATGAGAAATAATTATAAACAA [CACACA_negctrl_site553] | 8.1 ± 0.29
73 | AAAAATATTATGATGTTTATTAGAAAGGAAAAAACT [CACACA_negctrl_site1417] | 8.55 ± 0.42
74 | TGCTTATCCATTTCTACACACAAAAAAAAAAAAAAA [CACACA_site37] | 8.28 ± 0.28
75 | TTATATTATAACAAACGTACGAATTTTATACAAATA [XGTACX_site7258] | 8.39 ± 0.34
76 | AAATGGGTTTATTTAACACACAAAAGAAAAAATATA [CACACA_site1938] | 8.65 ± 0.45
77 | TATATATATTTATGTTGTACAAAATATTATTACGTA [XGTACX_site5384] | 8.32 ± 0.12
78 | TATTTTTACAATGGTAGTACCATTTTGAATCTTTGT [XGTACX_site6092] | 8.59 ± 0.33
79 | CACCCGCACGTATTTGCACACATTGCCACGTAATTA [CACACA_site5786] | 9.1 ± 0.35
80 | ACATAAAATAAATATACACACATATGTATATATTAT [CACACA_site3041] | 8.22 ± 0.26
81 | ATAAAATATATATGCACACACATATATATTTCATAC [CACACA_site3547] | 8.49 ± 0.35
82 | AAAAGAATTTAGAAGGCATGCACTTAAACATGGATA [TGCATGCA_site699] | 9.13 ± 0.33
83 | ATATATATATATATGTGTACTTATAAATATATCTGT [XGTACX_site4337] | 10.1 ± 0.33
84 | ATATCCCATATGTAATGTACTTACACTTTCTTAATT [XGTACX_site7020] | 8.72 ± 0.39
85 | AATATTTAAAACAAATCACACATGTATCCATAAATG [CACACA_site5308] | 8.38 ± 0.33
86 | TAAATATTTTATTGTACACACTTTTTATGAATGATG [CACACA_site5694] | 8.93 ± 0.46
87 | AGGGAATAATATTAATGTACATATATGAACTTGTTT [XGTACX_site6089] | 8.71 ± 0.56
88 | TCTTTTAAAAATTAAGTGCATGTCCTTATAACAAAA | 8.54 ± 0.2
